The other results are listed elsewhere or left out. These are noisy estimates, calculated here from bound and input reads.

The assay concerns the target T1, Pho4 (S. cerevisiae) (UniProt P07270).
T1 sequence: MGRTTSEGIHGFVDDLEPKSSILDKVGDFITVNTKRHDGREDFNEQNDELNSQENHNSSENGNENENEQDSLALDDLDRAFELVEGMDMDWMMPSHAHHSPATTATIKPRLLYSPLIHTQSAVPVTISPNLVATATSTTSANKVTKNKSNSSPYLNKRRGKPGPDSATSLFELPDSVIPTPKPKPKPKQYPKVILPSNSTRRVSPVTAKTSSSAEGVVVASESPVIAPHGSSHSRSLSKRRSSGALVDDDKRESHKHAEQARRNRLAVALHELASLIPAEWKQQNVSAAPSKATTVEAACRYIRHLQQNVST
Put plainly: relative binding free energy (BET-seq); higher = weaker binding. Particulars: reference: library average.
On to GGGCCCACGTGGGTGA, for which the “relative binding free energy” value is -0.13 kcal/mol.
With GACAGCACGTGGGGGG, the “relative binding free energy” value was -0.11 kcal/mol.
With GTAATCACGTGATGGA, the “relative binding free energy” value amounted to 0.25 kcal/mol.
The same measure for CTGTGCACGTGTTTTT: 0.04 kcal/mol; for TTTTTCACGTGGTAGT: 0.38 kcal/mol; for AGAGGCACGTGTAGGT: -0.17 kcal/mol.
Then TGGAGCACGTGTCGTA, with -0.1 kcal/mol; and GGAGACACGTGGCGGC, with 0.05 kcal/mol; and GTATTCACGTGGGGTG, with 0.15 kcal/mol.
The same measure for GTTGTCACGTGAAGTC: 0.34 kcal/mol.
As for CGGGGCACGTGTGGTT, the “relative binding free energy” value turned out to be 0.04 kcal/mol.
For CGGTCCACGTGTATGT, the “relative binding free energy” value worked out at 0 kcal/mol.
Then AGGTGCACGTGCCTTG, with -0.1 kcal/mol.
Then TGATACACGTGGGTTT, with 0.07 kcal/mol.
Consider CGGTGCACGTGTTGCT, for which the “relative binding free energy” value is -0.09 kcal/mol.
In the case of AGTATCACGTGAATTT, the “relative binding free energy” value was 0.27 kcal/mol.
Regarding TCGCGCACGTGGTGTG, the “relative binding free energy” value is -0.24 kcal/mol.
The same measure for GTATTCACGTGGTAAG: 0.28 kcal/mol; for GTTATCACGTGATGTT: 0.38 kcal/mol; for AAATTCACGTGGTGAT: 0.25 kcal/mol.
The same measure for TTTCTCACGTGGTTTT: 0.3 kcal/mol; for GCGGGCACGTGAAGTG: 0.18 kcal/mol.
The same measure for GGTCTCACGTGGTGGA: 0.23 kcal/mol.
As for TTCGTCACGTGTTGGC, the “relative binding free energy” value is 0.11 kcal/mol.
Regarding GTATTCACGTGAATGG, the “relative binding free energy” value stood at 0.32 kcal/mol.
Then GGTCACACGTGGCGTG, with 0 kcal/mol.
Turning to GGCATCACGTGCGGTA, the “relative binding free energy” value stood at 0.27 kcal/mol.
Turning to CTTGCCACGTGGTGTG, the “relative binding free energy” value was -0.29 kcal/mol.
The same measure for GGGATCACGTGGGTGC: 0.04 kcal/mol.
On to ATAGGCACGTGTCTGG, for which the “relative binding free energy” value is -0.26 kcal/mol.
Then CCTGGCACGTGTTATT, with 0.06 kcal/mol; and TGGAGCACGTGGAGCG, with -0.04 kcal/mol.
In the case of TGGAGCACGTGACTGA, the “relative binding free energy” value was 0.13 kcal/mol.
Then GGCGACACGTGGAGAG, with 0.06 kcal/mol; and GTTAGCACGTGCTTTT, with -0.02 kcal/mol.
The same measure for TTGGACACGTGGGCTT: 0.02 kcal/mol; for CGGTGCACGTGAGTTG: 0.15 kcal/mol.
In the case of TGGGGCACGTGAGGAT, the “relative binding free energy” value amounted to 0.18 kcal/mol.
Turning to AAATACACGTGGGTGC, the “relative binding free energy” value was 0.01 kcal/mol.
Then TTGTACACGTGGCATT, with -0.05 kcal/mol; and GATTACACGTGTGCTG, with 0.22 kcal/mol; and GGGTTCACGTGGCTTT, with 0.2 kcal/mol.
Turning to AGGTTCACGTGGTCAT, the “relative binding free energy” value was determined as 0.29 kcal/mol.
Then TGATGCACGTGGGGAG, with -0.16 kcal/mol; and GTAGCCACGTGAAGTT, with 0.27 kcal/mol; and GGTACCACGTGTGTGG, with -0.07 kcal/mol.
Then AGGGACACGTGGTGCG, with -0.04 kcal/mol; and GTTGTCACGTGGTGTT, with 0.09 kcal/mol.
Then AGGTGCACGTGTTTCG, with -0.1 kcal/mol.
As for CTTATCACGTGTCTGT, the “relative binding free energy” value was 0.05 kcal/mol.
The same measure for AAGAACACGTGTGGGT: 0.06 kcal/mol; for TGGGACACGTGAGGAT: 0.3 kcal/mol; for TGCGACACGTGAGAGG: 0.28 kcal/mol.
Then AGTTGCACGTGCGGTT, with -0.04 kcal/mol; and CGCGTCACGTGGTGGG, with 0.02 kcal/mol.
The same measure for GAGGTCACGTGAGCTG: 0.29 kcal/mol; for GGAGACACGTGGCGTG: -0.02 kcal/mol.
As to TAGTACACGTGATGCG, the “relative binding free energy” value worked out at 0.09 kcal/mol.
The same measure for CAGTGCACGTGATGAT: 0.1 kcal/mol; for AACGTCACGTGTGTTG: 0.17 kcal/mol; for GTATACACGTGTGGAA: 0.24 kcal/mol.
Then ATACGCACGTGTAGTT, with -0.08 kcal/mol; and TGGTACACGTGAGAAT, with 0.29 kcal/mol.

The values above are taken from the BET-seq Pho4 binding data (Le et al. 2018).
